# PubChem BioAssay AID1768 (National Center for Advancing Translational Sciences (NCATS), 2009)
# The whole screen tested about 270,000 compounds, of which about 620 (0.23%) were called active. Inconclusive means that the source gave no clear call. Such entries were picked first, then a sample of the others. The call rests on the fitted dose curve; in most records, active means well fitted inhibition curve with a large enough effect in the polarisation, with a control signal flat (not every such curve was filed as active); inconclusive means small, poorly fitted or top-dose-only effect, or effect the other way, or a change in a side signal; inactive means no such curve, though single readings can be large or run the other way; the % refers to the polarisation. Potencies beside an inconclusive call are fits to weak or partial responses and may not hold up. A note “side channel” means that the fit belongs to a control or component signal, not to the main read-out.
# Target: Menin (Homo sapiens) (UniProt O00255)
# Chain of UniProt O00255 (O00255 whole entry, looked up): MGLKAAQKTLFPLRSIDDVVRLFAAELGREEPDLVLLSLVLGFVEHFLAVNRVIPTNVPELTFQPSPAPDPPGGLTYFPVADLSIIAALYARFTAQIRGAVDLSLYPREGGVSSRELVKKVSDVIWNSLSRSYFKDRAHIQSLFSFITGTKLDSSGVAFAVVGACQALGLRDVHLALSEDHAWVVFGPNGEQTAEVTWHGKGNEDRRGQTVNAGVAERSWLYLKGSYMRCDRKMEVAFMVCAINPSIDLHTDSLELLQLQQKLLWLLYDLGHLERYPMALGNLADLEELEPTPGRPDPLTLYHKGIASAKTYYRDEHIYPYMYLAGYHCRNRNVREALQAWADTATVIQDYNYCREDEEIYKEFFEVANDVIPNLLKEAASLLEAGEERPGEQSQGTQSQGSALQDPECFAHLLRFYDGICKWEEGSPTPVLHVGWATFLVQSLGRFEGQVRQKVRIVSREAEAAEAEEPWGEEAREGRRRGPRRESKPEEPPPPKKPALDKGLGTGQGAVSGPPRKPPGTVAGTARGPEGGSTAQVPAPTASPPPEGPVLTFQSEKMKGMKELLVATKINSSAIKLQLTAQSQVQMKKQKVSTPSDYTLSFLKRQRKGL
# Test: qHTS Assay for Inhibitors Targeting the Menin-MLL Interaction in MLL Related Leukemias: Competition With Texas Red Labeled MLL-derived Mutant Peptide; on FP activity change, negative = inhibition: % of control where 0% means no effect
# Settings: fluorescence polarization; FP activity change, negative = inhibition: at 61.6 µM (top of the series)
# Potency means the concentration at half of the fitted maximal effect; tags describe the fitted curve by direction and shape or compound fluorescence and quenching.
SMILES,Potency,"FP activity change, negative = inhibition"
NC(=O)C1CCN(c2nc(-c3ccc(Br)cc3)cs2)CC1,"inconclusive: 25.1 µM [quencher, side channel, single point]",–
CCC1(C)Cc2ccccc2/C(=C/C(=O)N2CCCCC2)N1 (configuration not stated),"inconclusive: 39.8 µM [inhibitor, single point]",–
Cc1nc2nc(-c3cccs3)cn2nc1C,–,inactive: -0.705%
CC(/C=C/C=C(\C)C(=O)O[C@@H]1O[C@H](CO[C@@H]2O[C@H](CO)[C@@H](O)[C@H](O)[C@H]2O)[C@@H](O)[C@H](O)[C@H]1O)=C\C=C\C=C(C)\C=C\C=C(/C)C(=O)O[C@@H]1O[C@H](CO[C@@H]2O[C@H](CO)[C@@H](O)[C@H](O)[C@H]2O)[C@@H](O)[C@H](O)[C@H]1O,–,inactive: -2.4%
O=C(c1ccc(C#CC2(O)CCCCC2)cc1)N1CCN(C(c2ccccc2)c2ccccc2)CC1,"inconclusive: 3.98 µM [fluorescent, side channel, partial curve]",–
COc1ccc(N=Nc2[nH]c3ccc(C)cc3c2O)cc1,"inconclusive: 31.6 µM [quencher, side channel, single point]",–
CC(/C=N\Nc1nnc2c(n1)[nH]c1c(C)cccc12)=C\c1ccco1,"inconclusive: 8.91 µM [quencher, side channel, full curve]",–
O=C(Nc1ccccc1)Nc1ccc(Cl)c([N+](=O)[O-])c1,"inconclusive: 22.4 µM [quencher, side channel, partial curve]",–
COc1cc(OC)c(NC(=S)Nc2cc(Cl)cc(Cl)c2)cc1Cl,"inconclusive: 12.6 µM [quencher, side channel, partial curve]",–
COc1cc(C(=S)N2CCN(C(c3ccccc3)c3ccccc3)CC2)cc(OC)c1O,–,inactive: 8.91%
Cc1ccc(NC(=O)Cn2c([N+](=O)[O-])cnc2C)cc1Cl,"inconclusive: 39.8 µM [fluorescent, side channel, single point]",–
CCOc1ccc(Nc2ccc([N+](=O)[O-])c3nonc23)cc1,"inconclusive: 20 µM [quencher, side channel, single point]",–
CCOC(=O)c1cc2c(=O)n3ccccc3nc2n(Cc2ccco2)c1=NC(=O)c1ccccc1OC,"inconclusive: 25.1 µM [quencher, side channel, single point]",–
CCC(=O)NC(c1cccc([N+](=O)[O-])c1)c1c(O)ccc2ccccc12 (configuration not stated),"inconclusive: 28.2 µM [quencher, side channel, partial curve]",–
COCCCNc1oc(/C=C/c2ccccc2)nc1C#N,"inconclusive: 39.8 µM [inhibitor, single point]",–
CCC(C(=O)N1CCCCCC1)n1nc(C)n2c(cc3occc32)c1=O (configuration not stated),"inconclusive: 1.26 µM [inhibitor, partial curve]",–
Clc1c(CSc2nc3ccccc3o2)nc2ccccn12,"inconclusive: 8.91 µM [inhibitor, partial curve]",–
O=C(c1ccc2c(=O)n(Cc3ccc(Cl)cc3)c(=S)[nH]c2c1)N1CCOCC1,"inconclusive: 22.4 µM [quencher, side channel, single point]",–
COc1ccc(OCCn2cc(/C=N/NC(=O)c3ccncc3)c3ccccc32)cc1,"inconclusive: 17.8 µM [quencher, side channel, partial curve]",–

SMILES,Potency,"FP activity change, negative = inhibition"
O=[N+]([O-])c1cc(C2Nc3cccc4cccc(c34)N2)ccc1Cl,"inconclusive: 14.1 µM [quencher, side channel, partial curve]",–
O=C(O)c1cc2cc(OCc3ccccc3)ccc2[nH]1,–,inactive: -1.19%
COc1cc(-c2noc(C)c2C#CC2(N)CCCCC2)cc(OC)c1OC,"inconclusive: 7.94 µM [inhibitor, partial curve]",–
C=CCNC(=O)/C(C#N)=C/c1ccccc1OCc1ccc(C(=O)OC)cc1,"inconclusive: 31.6 µM [fluorescent, side channel, single point]",–
Cc1ccc(C(=O)C2(C)C3c4cc(Br)ccc4OC(=O)C32C(=O)c2ccco2)cc1 (configuration not stated),"inconclusive: 3.16 µM [inhibitor, full curve, poor fit]",–
COc1ccccc1CN1CCNC(=O)C1CC(=O)NCCC1=CCCCC1 (configuration not stated),–,inactive: -16.2%
O=C1N(Cc2cccnc2)C[C@@H]2C[C@@H](c3ccc(-c4ccccc4)cc3)N3CCC[C@@]123,"inconclusive: 11.2 µM [fluorescent, side channel, partial curve]",–
O=C(C1CCN(CC2CC=CCC2)CC1)N(CCc1ccccc1)Cc1ccccc1 (configuration not stated),"inconclusive: 39.8 µM [inhibitor, single point]",–
COc1ccc(C)cc1NCc1cc(=O)oc2cc(-c3ccccc3)c(O)cc12,"inconclusive: 12.6 µM [quencher, side channel, partial curve]",–
CCCN1CCC(=O)N(C(CSc2ccc(Br)cc2)c2ccccc2)CC1 (configuration not stated),–,inactive: -20.1%
C=CCn1c(O)c(C=Nc2ccccc2)sc1=S,"inconclusive: 22.4 µM [quencher, side channel, partial curve]",–
COc1ccc(OC)c(CCNC(=O)Cn2sc3nc(C)cc(C)c3c2=O)c1,–,inactive: -17.8%
COc1ccc(Nc2cc(NCCCO)c([N+](=O)[O-])c3nonc23)cc1,"inconclusive: 14.1 µM [inhibitor, partial curve]",–
COc1ccc(-c2csc(NC(=O)COC(=O)Cc3ccc(Cl)cc3Cl)n2)cc1,"inconclusive: 4.47 µM [inhibitor, single point]",–
Cc1cccc(NC(=O)C(c2cccc([N+](=O)[O-])c2)N2CCCCC2)c1 (configuration not stated),"inconclusive: 11.2 µM [inhibitor, partial curve]",–
COc1ccc(C(C(=O)NC(C)(C)C)N(C(=O)CCC(=O)Nc2cc(C)on2)c2ccccc2F)cc1 (configuration not stated),"inconclusive: 12.6 µM [fluorescent, side channel, partial curve]",–
Cc1ccc2c(N)c(C#N)sc2n1,–,inactive: -10.2%
Cc1cc(Nc2ccc([N+](=O)[O-])cc2)nc2ccccc12,"inconclusive: 14.1 µM [quencher, side channel, partial curve]",–
